In the supplement of paper PMC10037445:
The full ranking holds about 2,900 compounds; the median of “IRF Lucia reporter activity, fold change vs agonist alone” is about 0.9, and the highest 2% start at about 2.8. The list shows a part of the results.

Tests used:
RAW-Dual [1] = assay: IRF Lucia reporter activity, fold change vs agonist alone; cytotoxicity flag (confluency mask): not cytotoxic; higher = enhanced IRF activity
Method in brief: (§1)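 Supernatant from RAW-Dual macrophages was read after 20 hours for IRF by QuantiLuc luminescence and for NF-κB by QuantiBlue absorbance at 620 nm. The cells (50,000 cells/well in DMEM, 384-well plates, 37 °C, 5% CO2) had received 50 nL of library stock by pin tool and, 1 h later, a PRR agonist. Reporter activity is expressed relative to agonist-alone wells as fold change, and wells were flagged cytotoxic if IncuCyte confluency was under 70% of agonist controls in both mask sets.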

RAW-Dual [2] = assay: IRF Lucia reporter activity, fold change vs agonist alone; higher = enhanced IRF activity; conditions: agonist: MPLA (TLR4) […]
Method in brief: as §1

RAW-Dual [3] = assay: IRF Lucia reporter activity, fold change vs agonist alone; cytotoxicity flag (confluency mask): cytotoxic (confluency <70% of control); higher = enhanced IRF activity
Method in brief: as §1

[4] = agonist: 3'3'-cGAMP (STING) 10 ug/mL
[5] = library stock concentration (final ~1000-fold dilution): 10 mM, cytotoxicity flag (confluency mask): not cytotoxic

Question: With `Cc1ccc2nc(NC(=O)CSc3nc4c(c(=O)n3-c3ccccc3)SCC4)sc2c1` (library stock concentration (final ~1000-fold dilution): 2 mM) as the molecule, how does the “IRF Lucia reporter activity” value (RAW-Dual [1]; [4]) read?
Answer: 1.07

Question: And the “IRF Lucia reporter activity” value (RAW-Dual [1]; agonist: LPS (TLR4) 0.1 ug/mL)?
Answer: 1.15

Question: With `Cc1ccc2nc(NC(=O)CSc3nc4c(c(=O)n3-c3ccccc3)SCC4)sc2c1` as the molecule, how does the “IRF Lucia reporter activity” value (RAW-Dual [2]; library stock concentration (final ~1000-fold dilution): 2 mM, cytotoxicity flag (confluency mask): not cytotoxic) read?
Answer: 1.34

Question: What does the source list for `N#C/C(=C\c1ccc(O)c(O)c1)C(=O)NCc1ccccc1` (library stock concentration (final ~1000-fold dilution): 10 mM)?
Answer: IRF Lucia reporter activity (RAW-Dual [1]; [4]): 0.137; IRF Lucia reporter activity (RAW-Dual [1]; agonist: LPS (TLR4) 0.1 ug/mL): 0.799

Question: How did the “IRF Lucia reporter activity” value (RAW-Dual [2]; [5]) turn out when `N#C/C(=C\c1ccc(O)c(O)c1)C(=O)NCc1ccccc1` was run?
Answer: 0.766

Question: Which results are given for `CC(C)(Sc1cc(C(C)(C)C)c(O)c(C(C)(C)C)c1)Sc1cc(C(C)(C)C)c(OC(=O)CCC(=O)O)c(C(C)(C)C)c1` (library stock concentration (final ~1000-fold dilution): 10 mM)?
Answer: IRF Lucia reporter activity (RAW-Dual [1]; [4]): 0.636; IRF Lucia reporter activity (RAW-Dual [1]; agonist: LPS (TLR4) 0.1 ug/mL): 0.908

Question: Which results are given for `Oc1cccc(-c2nc(N3CCOCC3)c3oc4ncccc4c3n2)c1` (library stock concentration (final ~1000-fold dilution): 10 mM)?
Answer: IRF Lucia reporter activity (RAW-Dual [1]; [4]): 0.381; IRF Lucia reporter activity (RAW-Dual [1]; agonist: LPS (TLR4) 0.1 ug/mL): 1.94

Question: With `Oc1cccc(-c2nc(N3CCOCC3)c3oc4ncccc4c3n2)c1` as the molecule, how does the “IRF Lucia reporter activity” value (RAW-Dual [2]; [5]) read?
Answer: 1.42

Question: How did the “IRF Lucia reporter activity” value (RAW-Dual [1]; [4]) turn out when `Cn1cc(-c2ccc3c(c2)CCN3C(=O)Cc2cccc(C(F)(F)F)c2)c2c(N)ncnc21` (library stock concentration (final ~1000-fold dilution): 10 mM) was run?
Answer: 0.184

Question: And the “IRF Lucia reporter activity” value (RAW-Dual [1]; agonist: LPS (TLR4) 0.1 ug/mL)?
Answer: 0.599

Question: For `Cn1cc(-c2ccc3c(c2)CCN3C(=O)Cc2cccc(C(F)(F)F)c2)c2c(N)ncnc21`, which “IRF Lucia reporter activity” value (RAW-Dual [2]; [5]) is on record?
Answer: 0.318

Question: Which results are given for `CC(Cc1cc2c(c(C(N)=O)c1)N(CCCO)CC2)NCCOc1ccccc1OCC(F)(F)F` (stereo not given) (library stock concentration (final ~1000-fold dilution): 10 mM)?
Answer: IRF Lucia reporter activity (RAW-Dual [1]; [4]): 0.978; IRF Lucia reporter activity (RAW-Dual [1]; agonist: LPS (TLR4) 0.1 ug/mL): 0.994

Question: With `CC(Cc1cc2c(c(C(N)=O)c1)N(CCCO)CC2)NCCOc1ccccc1OCC(F)(F)F` (stereo not given) as the molecule, how does the “IRF Lucia reporter activity” value (RAW-Dual [2]; [5]) read?
Answer: 1

Question: With `CC1OC(=O)C(C)C1CC(O)C(C)(O)C1CCC2(O)C3=CC(=O)C4CC(O)C(O)CC4(C)C3CCC12C` (stereo not given) (library stock concentration (final ~1000-fold dilution): 10 mM) as the molecule, how does the “IRF Lucia reporter activity” value (RAW-Dual [1]; [4]) read?
Answer: 0.966

Question: And the “IRF Lucia reporter activity” value (RAW-Dual [1]; agonist: LPS (TLR4) 0.1 ug/mL)?
Answer: 0.956

Question: `O=C(/C=C/c1ccc(O)c(O)c1)O[C@@H]1C[C@](O)(C(=O)O)C[C@@H](O)[C@H]1O` (library stock concentration (final ~1000-fold dilution): 10 mM) was tested. Which “IRF Lucia reporter activity” value (RAW-Dual [1]; [4]) did it give?
Answer: 1.08

Question: And the “IRF Lucia reporter activity” value (RAW-Dual [1]; agonist: LPS (TLR4) 0.1 ug/mL)?
Answer: 1.11

Question: For `C=CCc1ccccc1OCC(O)CNC(C)C.Cl` (stereo not given), which “IRF Lucia reporter activity” value (RAW-Dual [2]; [5]) is on record?
Answer: 1.13

Question: `C=CCc1ccccc1OCC(O)CNC(C)C.Cl` (stereo not given) (library stock concentration (final ~1000-fold dilution): 10 mM) was tested. Which “IRF Lucia reporter activity” value (RAW-Dual [1]; [4]) did it give?
Answer: 0.823

Question: What about the “IRF Lucia reporter activity” value (RAW-Dual [1]; agonist: LPS (TLR4) 0.1 ug/mL) of the same molecule?
Answer: 0.999

Question: How did the “IRF Lucia reporter activity” value (RAW-Dual [1]; [4]) turn out when `O=S(=O)(Cl)c1ccc(-c2ccccc2)cc1` (library stock concentration (final ~1000-fold dilution): 10 mM) was run?
Answer: 1.02

Question: And the “IRF Lucia reporter activity” value (RAW-Dual [1]; agonist: LPS (TLR4) 0.1 ug/mL)?
Answer: 0.592

Question: With `O=S(=O)(Cl)c1ccc(-c2ccccc2)cc1` as the molecule, how does the “IRF Lucia reporter activity” value (RAW-Dual [2]; [5]) read?
Answer: 1.02

Question: With `Nc1nc(Cl)nc2c1ncn2C1CC(O)C(CO)O1` (stereo not given) as the molecule, how does the “IRF Lucia reporter activity” value (RAW-Dual [2]; library stock concentration (final ~1000-fold dilution): 10 mM, cytotoxicity flag (confluency mask): cytotoxic (confluency <70% of control)) read?
Answer: 0.914

Question: With `Nc1nc(Cl)nc2c1ncn2C1CC(O)C(CO)O1` (stereo not given) (library stock concentration (final ~1000-fold dilution): 10 mM) as the molecule, how does the “IRF Lucia reporter activity” value (RAW-Dual [3]; [4]) read?
Answer: 0.706

Question: What about the “IRF Lucia reporter activity” value (RAW-Dual [3]; agonist: LPS (TLR4) 0.1 ug/mL) of the same molecule?
Answer: 0.942
